Results: ChEMBL document CHEMBL1157539, “Thousands of chemical starting points for antimalarial lead identification” (Nature, 2010)
The full ranking holds about 13,000 compounds; the median of “IFI” is about 4, and the highest 2% start at about 17. Some of the results follow.

Assay: GSK_TCMDC: Inhibition Frequency Index (IFI). The number of non-kinase HTS assays where a compound showed > 50 % inhibition, expressed as a percentage of the number of such assays in which the compound was tested (-0 is zero)
Type: functional

Compound | IFI [%]
COc1ccc(Nc2ncc3c(-c4cccc(NC(=O)Cc5cccc(O)c5)c4)c[nH]c3n2)cc1OC | 7.91
O=C(c1ccc(F)c(F)c1)N1CCOC(CCN2CCC(c3ccccc3)CC2)(c2ccc(Cl)c(Cl)c2)C1 (stereo not given) | 6.76
Nc1ncc(-c2cccc(OCc3ccccc3)c2)cc1-c1nnc2ccc(Cl)nn12 | -0
CO/C(=C\C=C\c1cc2cc(Cl)c(Cl)cc2[nH]1)C(=O)NC1CCN(CCCc2ccccc2)CC1 | 9.49
COc1cccc(-c2c(C#N)c(N)nc3c2c(C)nn3-c2ccccc2)c1O | 2.94
Cc1cccc2nc(-c3cccc(-c4cccc(NC(=O)Nc5ccc(Cl)cc5)c4)c3)[nH]c12 | 5
Nc1ncc(-c2ccccc2)cc1-c1cccc2ncccc12 | 8
COc1ccccc1CNC(=O)c1nn(-c2ccc(Cl)cc2)c(=O)c2ccccc12 | 0.69
CC(=O)C1=NN(c2ccc(C)cc2)C(c2cccs2)N1c1ccccc1 (stereo not given) | 2.65
CCCn1c(O)nnc1SCC(=O)Nc1cc(C(F)(F)F)ccc1Cl | 1.57
CCCNCc1ccc(-c2ccc(CN(CC3CCCO3)C(=O)C3CC(=O)c4ccccc43)cc2)nc1 (stereo not given) | 1.41
Cc1ccc(O)cc1Nc1ccnc2cc(-c3cccc(CNCCS(C)(=O)=O)c3)ccc12 | 3.6
Cc1ccnc2nc(C(=O)Nc3cc(Cl)ccc3N3CCOCC3)nn12 | 0.83
COc1cc2nc(N3CCC(NC(=O)c4cccc(N(C)C)c4)CC3)nc(N)c2cc1OC | 3.25
COc1ccc(N2CCN(CCCCNC(=O)c3ccc(NC(=O)c4ccc(Cl)cc4)cc3)CC2)c(OC)c1 | 5.07
O=[N+]([O-])c1c(O)nc2c(c1O)CCC2 | 0
CN(C)CCNCc1cccc(-c2ccc3c(Nc4ccc(Oc5ccccn5)cc4)ccnc3c2)c1 | 8.76
CC1(C)CCCC(=Cc2ccc(Br)cc2)C1(O)Cn1ccnc1 (stereo not given) | 5.88
CN(Cc1cnc2nc(N)nc(N)c2n1)c1ccc(C(=O)N[C@H](CCC(=O)OC(C)(C)C)C(=O)N[C@@H](CCC(=O)OC(C)(C)C)C(=O)OC(C)(C)C)cc1 | 4.35
CNC(=O)CSc1nnc(-c2ccc(C)cc2)c(-c2ccc(C)cc2)n1 | -0
NCCCNc1ccc(-c2ccc(NC(=O)Nc3cc(C(F)(F)F)ccc3F)cc2)cn1 | 9.88
COc1cc2ncnc(Nc3ccc(Br)c(Cl)c3)c2cc1OC | 0.74
O=C(NCc1ccc(C(F)(F)F)cc1)c1cccc(-c2nnc(-c3cccc(-c4cncnc4)c3)o2)c1 | 2.16
CCNc1cc(C(=O)N[C@@H](Cc2ccccc2)[C@H](O)CNC2(C(C)C)CCC2)cc(N2CCCCS2(=O)=O)c1 | 0.75
CC(C)CNCc1cccc(-c2cccc(CN(CCN(C)C)C(=O)Nc3ccccc3)c2)c1 | 5.76
